The results in this text go back to PMC6919601, “Identification of Plasmodium dipeptidyl aminopeptidase allosteric inhibitors by high throughput screening” (PLoS ONE, 2019).

The structures appear in SMILES notation. Among all 110,000 compounds or so, about 230 (0.21%) showed an effect of 50% or more. Some of the results follow.
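Further: 30 min substrate incubation versus DMSO and 10 µM JCP410 controls.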

The assay deals with DPAP1 (Plasmodium falciparum, UniProt Q8IIJ9). Briefly: primary screen, percent inhibition; read by cleavage of a fluorogenic dipeptide substrate; higher = more effect of the substance. Set-up: species or system P. falciparum D10 trophozoite lysates; single well.
Sequence of DPAP1 (Q8IIJ9 whole entry, looked up): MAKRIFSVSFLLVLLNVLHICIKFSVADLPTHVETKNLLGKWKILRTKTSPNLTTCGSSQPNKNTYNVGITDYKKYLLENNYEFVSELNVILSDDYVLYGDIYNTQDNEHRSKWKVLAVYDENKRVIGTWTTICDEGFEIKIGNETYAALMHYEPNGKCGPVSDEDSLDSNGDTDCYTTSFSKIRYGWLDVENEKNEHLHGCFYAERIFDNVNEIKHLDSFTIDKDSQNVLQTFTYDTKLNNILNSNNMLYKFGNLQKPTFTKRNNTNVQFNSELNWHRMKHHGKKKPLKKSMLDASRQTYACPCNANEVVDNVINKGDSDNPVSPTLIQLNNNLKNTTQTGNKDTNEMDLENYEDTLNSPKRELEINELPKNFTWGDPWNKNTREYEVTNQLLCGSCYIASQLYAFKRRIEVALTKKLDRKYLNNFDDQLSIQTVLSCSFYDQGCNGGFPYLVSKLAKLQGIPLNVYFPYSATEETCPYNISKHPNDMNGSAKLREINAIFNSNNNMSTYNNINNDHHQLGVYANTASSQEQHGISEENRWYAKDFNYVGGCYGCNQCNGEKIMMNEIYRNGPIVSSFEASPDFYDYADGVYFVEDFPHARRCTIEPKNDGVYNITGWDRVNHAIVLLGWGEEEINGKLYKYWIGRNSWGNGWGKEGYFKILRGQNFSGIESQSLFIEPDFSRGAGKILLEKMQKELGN
In the case of `CC(=O)C(C)(O)c1cccnc1` (stereo not drawn), the “% Inhibition @ 10 uM” value was -2.79%.

As for `O=C(Nc1c2c(nn1-c1ccc(F)cc1)CS(=O)(=O)C2)c1cc(Br)ccc1Cl`, the “% Inhibition @ 10 uM” value came out at 9.09%.

As to `COC(=O)C1=C(C)N(CC2CCCO2)C(=O)/C1=C\c1ccccc1OC` (stereo not drawn), the “% Inhibition @ 10 uM” value is listed as -3.4%.

Consider `Cc1nc2ccsc2c(=O)n1-c1ccc(Cl)cc1`, for which the “% Inhibition @ 10 uM” value was 1.01%.

With `Cc1cc(C)c(S(=O)(=O)N2CCC(C(=O)Nc3c(F)cccc3F)CC2)c(C)c1`, the “% Inhibition @ 10 uM” value is recorded as -2.28%.

For `O=C(NC1CCCCC1)c1ccc(Cl)c(S(=O)(=O)N2CCCCC2)c1`, the “% Inhibition @ 10 uM” value amounted to 5.56%.

In the case of `O=C(CN(c1ccccc1)S(=O)(=O)c1ccccc1)N1CCN(c2ccccc2)CC1`, the “% Inhibition @ 10 uM” value is recorded as -5.95%.

On to `O=C1CC(NCc2ccccn2)C(=O)N1c1ccc(F)cc1` (stereo not drawn), for which the “% Inhibition @ 10 uM” value was -1.61%.

As to `CN1C(=O)C(CC(=O)Nc2ccccc2F)S/C1=N/c1ccccc1` (stereo not drawn), the “% Inhibition @ 10 uM” value amounted to 2.13%.

As for `Cc1nc2c3ccccc3nc(N3CCN(C(c4ccccc4)c4ccccc4)CC3)n2n1`, the “% Inhibition @ 10 uM” value worked out at 0.775%.

On to `COc1ccc(OC)c(NS(=O)(=O)c2c(C)cc(C)cc2C)c1`, for which the “% Inhibition @ 10 uM” value is given as -3.15%.

Turning to `COC(=O)Nc1nc(O)c2cc([N+](=O)[O-])ccc2n1`, the “% Inhibition @ 10 uM” value was -1.91%.

On to `N#C/C(=C\c1c(Oc2ccccc2Cl)nc2ccccn2c1=O)C(=O)NC1CCCC1`, for which the “% Inhibition @ 10 uM” value worked out at 4.06%.

Regarding `COc1ccc(C(=O)Nc2cc(Cl)ccn2)cc1`, the “% Inhibition @ 10 uM” value is -5.6%.

`CCOC(=O)C1(C#N)C2(CCCCC2)C1(C#N)C(=O)OCC` (stereo not drawn): the “% Inhibition @ 10 uM” value was 3.16%.

Regarding `CCN1CCN(C(=O)C2CC(c3ccc(Cl)cc3)=NO2)CC1` (stereo not drawn), the “% Inhibition @ 10 uM” value was determined as 5.12%.

Turning to `Cc1ccc(Sc2ccc(C=C3C(=O)N(C)C(=O)N(C)C3=O)o2)cc1`, the “% Inhibition @ 10 uM” value is recorded as -2.26%.

Consider `CC(C)(C)C(=O)CC(O)(c1ccccc1)C(F)(F)F` (stereo not drawn), for which the “% Inhibition @ 10 uM” value is given as 4.82%.

Take `CC1=NN(c2ccc(Cl)cc2)C(=O)C1`: the “% Inhibition @ 10 uM” value is listed as -3.79%.

For the compound `COc1cc(C)c(CNc2cccc(SC)c2)cc1C`, the “% Inhibition @ 10 uM” value is reported as 2.91%.

Consider `CN1CCN(c2cc(N3CCN(CCO)CC3)ccc2[N+](=O)[O-])CC1`, for which the “% Inhibition @ 10 uM” value is reported as -0.0648%.

Take `CCCC1Oc2ccccc2C2CC(c3ccc(Cl)cc3)=NN12` (stereo not drawn): the “% Inhibition @ 10 uM” value came to 12.2%.

With `COc1ccc2nc(N3CCC(C(=O)N4CCC5(CC4)OCCO5)CC3)sc2c1`, the “% Inhibition @ 10 uM” value is recorded as -5.51%.

On to `CCCCN(Cc1ccccc1)C1CCN(Cc2ccccc2)CC1`, for which the “% Inhibition @ 10 uM” value amounted to 0.472%.

In the case of `O=C(CCCNS(=O)(=O)c1cccs1)NCc1ccc(F)cc1`, the “% Inhibition @ 10 uM” value is 2.59%.

`CO/C(O)=C1/C(C)=NC2=C(C(=O)CC(c3ccccc3)C2)C1c1ccncc1` (stereo not drawn): the “% Inhibition @ 10 uM” value came to 1.57%.

With `O=C1NC2(CCCCC2)C(=O)N1CCS(=O)(=O)Oc1ccc(Cl)cc1`, the “% Inhibition @ 10 uM” value is given as -2.79%.

`O=C(Nc1ccc(N2CCN(C(=O)c3ccccc3)CC2)c(Cl)c1)c1ccc(Br)o1`: the “% Inhibition @ 10 uM” value is listed as -4.71%.

`CC(=O)N/C(=C\c1ccc(F)cc1)C(=O)OC(C)C`: the “% Inhibition @ 10 uM” value was determined as 0.685%.

For `CC(=O)c1oc2ccccc2c1NC(=O)CN1CCCCC1`, the “% Inhibition @ 10 uM” value is reported as 0.76%.

Turning to `O=C(O)CCCC(=O)N1N=C(c2ccccc2)CC1c1cccs1` (stereo not drawn), the “% Inhibition @ 10 uM” value stood at 0.343%.

`CCOC(=O)N1CCC(NCc2ccccc2F)CC1`: the “% Inhibition @ 10 uM” value amounted to 3.15%.

For the compound `COc1cc(CN2CCN(Cc3ccccc3)CC2)cc(Br)c1O`, the “% Inhibition @ 10 uM” value was -5.57%.

Consider `CSc1ncc(C(=O)NC2CCN(Cc3ccccc3)CC2)c(C)n1`, for which the “% Inhibition @ 10 uM” value was -3.9%.

As to `O=C1NC(=O)N(c2ccccc2)C(=O)/C1=C\Nc1ccc(C(=O)N2CCCCC2)cc1`, the “% Inhibition @ 10 uM” value is on record as -6.7%.

With `CC(C)CC/N=c1/c(-c2ccccc2)c(O)c1=O`, the “% Inhibition @ 10 uM” value is -0.539%.

As for `O=C(NCc1cccs1)c1cc2nc(-c3ccco3)cc(C(F)(F)Cl)n2n1`, the “% Inhibition @ 10 uM” value is reported as -8%.

On to `CC1=C(C(=O)Nc2ccccn2)C(c2ccc(Cl)cc2)C2=C(O)CC(c3ccccc3)CC2=N1` (stereo not drawn), for which the “% Inhibition @ 10 uM” value was determined as 4.11%.

Regarding `O=C(O)/C=C/C(=O)Nc1cccc(C(=O)O)c1`, the “% Inhibition @ 10 uM” value is listed as -0.128%.

`CC1=C(C(=O)Nc2ccc(Cl)cc2)C(c2ccc3c(c2)OCO3)n2nc(CCCO)nc2N1` (stereo not drawn): the “% Inhibition @ 10 uM” value is 5.44%.

Consider `O=C(NC1(C(F)(F)F)Oc2ccccc2O1)N1CC2CC(C1)c1cccc(=O)n1C2` (stereo not drawn), for which the “% Inhibition @ 10 uM” value was 1.26%.

Take `CCC[C@H](NC(=O)C1(NC(=O)c2ccc(Cl)cc2)CCCCC1)C(=O)c1nc2ccccc2o1`: the “% Inhibition @ 10 uM” value is -1.41%.

In the case of `COc1ccc(-c2nnc(SCC(=O)Nc3nccs3)n2-c2ccccc2)cc1OC`, the “% Inhibition @ 10 uM” value is given as -10.9%.

In the case of `Cc1ccc(-c2nnc(NC(=O)c3ccc(S(=O)(=O)N4CCCCC4)cc3)s2)cc1`, the “% Inhibition @ 10 uM” value amounted to 0.997%.

With `N#CC1=C(N)OC2=C(C(=O)CC(c3ccco3)C2)C1c1ccc(OCc2ccc(F)cc2)cc1` (stereo not drawn), the “% Inhibition @ 10 uM” value is listed as -2.83%.

In the case of `CCCC(=O)Nc1ccc(C(=O)NCc2ccccc2OC)cc1`, the “% Inhibition @ 10 uM” value is reported as -5.26%.

Take `CCc1nn(CC(=O)NCC2CCCO2)c(=O)c2cc3sccc3n12` (stereo not drawn): the “% Inhibition @ 10 uM” value is -5.19%.

`CC(C)(C)C(=O)c1cn(CC(=O)N2CCOCC2)c2ccccc12`: the “% Inhibition @ 10 uM” value was -5.41%.
